{"source": "PubChem BioAssay AID652104", "about": "(National Center for Advancing Translational Sciences (NCATS), 2013)", "note": "About 7,200 (1.8%) of roughly 410,000 compounds were called active. Inconclusive results, whose numbers are uncertain, are shown with a selection of clear calls. Calls come from the whole dose curve; as a rule, active = well fitted activation curve with a large enough effect; inconclusive = small, poorly fitted or top-dose-only effect, or another doubt; inactive = no such curve, though single readings can be large or run the other way. Potencies of inconclusive entries are left out as doubtful fits. Potency is the fitted concentration of half-maximal effect; tags give direction and shape of the fitted curve.", "data": [{"assay": "qHTS of TDP-43 Inhibitors; note: nearly all actives have a fitted effect of over 50% in size; for growth rescue (activation): % of control where 0% means no effect", "conditions": "TDP-43 expressing yeast growth rescue, BacTiter-Glo, 24 h; growth rescue (activation): at 46.1 µM (top of the series) unless noted", "summary_of_the_method": "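Luminescence from BacTiter-Glo reports growth of TDP-43-expressing yeast after 24 hr at 30 deg C with compound. Cells were raffinose-pregrown to mid-log, then seeded in galactose medium at OD600=0.02.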", "values": [{"smiles": "CCOc1ccc2cc(C(=O)c3ccccc3)c(=O)oc2c1", "Potency": "inconclusive [activator, partial curve]"}, {"smiles": "CN1CCN2c3ncccc3Cc3ccccc3C2C1", "note": "(stereo not given)", "Potency": "inconclusive [activator, full curve, poor fit]"}, {"smiles": "CNC(=O)C(=O)Nc1ccc2c(c1)N(S(=O)(=O)c1cccs1)CCC2", "Potency": "active: 15.8 µM"}, {"smiles": "COc1ccccc1CNC(=O)c1cc2cc(C)ccc2n1C", "Potency": "inconclusive [activator, single point]"}, {"smiles": "O=C(COc1ccccc1)NCC1COc2ccccc2O1", "note": "(stereo not given)", "Potency": "inactive"}, {"smiles": "COc1ccccc1CNC(=O)COc1ccccc1C(=O)c1cnn(-c2ccccc2)c1", "Potency": "inconclusive [activator, single point]"}, {"smiles": "COCCNc1ncnc2onc(-c3ccc(F)cc3)c12", "Potency": "inconclusive [activator, partial curve]"}, {"smiles": "C#CCOCCOCCOCCNc1nc(N2CCN(C(=O)CCCCCCCCCCNC(=O)[C@@H](CCSC)n3cc(CCO)nn3)CC2)nc(N2CCN(C(=O)CCCCCCCCCCNC(=O)[C@H](CCSC)n3cc(CCO)nn3)CC2)n1", "Potency": "inactive"}, {"smiles": "Clc1ccc(-c2cnnc(-c3ccccn3)n2)cc1", "Potency": "inconclusive [activator, partial curve]"}, {"smiles": "O=C(Nc1nnc(-c2ccc3c(c2)CCCC3)o1)C1CCCCC1", "Potency": "inconclusive [activator, partial curve]"}, {"smiles": "Cc1ccc(C(=O)N/N=C/c2ccc(-c3cccc(C(F)(F)F)c3)o2)cn1", "Potency": "inconclusive [activator, partial curve]"}, {"smiles": "CC(C)Oc1ccc(C(=O)N2CC(=O)Nc3ccc(F)cc3C2c2ccc(F)cc2)cc1", "note": "(stereo not given)", "Potency": "inconclusive [activator, partial curve]"}, {"smiles": "C[C@@H]1CN([C@@H](C)CO)C(=O)CCCn2nncc2CO[C@@H]1CN(C)C(=O)NC1CCCCC1", "growth rescue (activation)": "inconclusive: 3.75% [activator]"}, {"smiles": "O=C1[C@H]2CCC=C[C@H]2[C@H](c2ccccc2Br)N1Cc1ccccc1", "Potency": "inconclusive [activator, single point]"}, {"smiles": "O=C(C(=O)N1CCN(c2ccccc2)CC1)c1ccccc1", "Potency": "inconclusive [activator, partial curve, poor fit]"}, {"smiles": "O=C(Nc1ccc(C(=O)N2CCN(c3ccc(F)cc3)CC2)cc1)C1=CSCCO1", "Potency": "inconclusive [activator, single point]"}, {"smiles": "COC(=O)c1sccc1NC(=O)Nc1cccc(C)c1", "Potency": "inconclusive [activator, single point]"}, {"smiles": "CCOc1ccc(CCNC(=O)c2sc3ncccc3c2-n2c(C)ccc2C)cc1", "Potency": "inconclusive [activator, single point]"}, {"smiles": "O=C(Nc1ccc(F)cc1)N[C@H]1CC[C@H](CCNS(=O)(=O)c2cccc(Cl)c2)O[C@@H]1CO", "Potency": "inconclusive [activator, partial curve, poor fit]"}, {"smiles": "CCN=c1scc(-c2ccccc2)n1/N=C/c1ccccn1", "Potency": "inconclusive [activator, single point]"}, {"smiles": "CCCN(C(=O)c1sc2nc3n(c(=O)c2c1C)CCCC3)c1ccccc1C", "Potency": "inactive"}, {"smiles": "CCn1cc(C(=O)NCCC2=CCCCC2)c(=O)c2cc(S(=O)(=O)N(C)C)ccc21", "Potency": "inconclusive [activator, partial curve]"}, {"smiles": "COc1ccc(SC[C@H](C)CN2CC[C@H](NC(=O)OCc3ccccc3)CCC2=O)cc1", "Potency": "inconclusive [activator, single point]"}, {"smiles": "CN(C(=O)c1ccc2c(c1)N(Cc1ccccc1F)C(=O)c1ccccc1S2(=O)=O)C1CCCCC1", "Potency": "inactive"}, {"smiles": "NCCC1CN(C(=O)OCc2ccccc2)c2ccccc21", "note": "(stereo not given)", "Potency": "inactive"}, {"smiles": "Cc1ccsc1-c1cc2nc(Nc3ccc(F)cc3)n(C)c(=O)c2s1", "Potency": "inconclusive [activator, full curve, poor fit]"}, {"smiles": "O=C1/C(=C/c2ccc(O)cc2)CCc2ccc([N+](=O)[O-])cc21", "Potency": "inconclusive [activator, partial curve]"}, {"smiles": "CCOc1ccc2nc(NC(=O)COC)sc2c1", "Potency": "inconclusive [activator, single point]"}, {"smiles": "CCN(CC)CCNC(=O)c1[nH]c2ccccc2c1Sc1ccc(Cl)cc1", "Potency": "inactive"}, {"smiles": "Fc1ccc(OCc2nc(-c3cccs3)no2)cc1", "Potency": "inconclusive [activator, partial curve]"}, {"smiles": "COc1ccc(C2=CC(=O)C[C@H](c3ccc(F)cc3)C2)c(OC)c1", "Potency": "active: 22.4 µM"}, {"smiles": "COc1ccc(C(=O)N2CCCCC2C(=O)Nc2ccc(-n3nc(C)cc3C)cc2)o1", "note": "(stereo not given)", "Potency": "inconclusive [activator, single point]"}, {"smiles": "CS(=O)(=O)N(CC(=O)N/N=C/c1cc2c(cc1Br)OCO2)c1ccccc1Br", "Potency": "inactive"}, {"smiles": "COc1ccccc1-c1c(C(F)(F)F)oc2cc(OC(=O)c3ccccc3[N+](=O)[O-])ccc2c1=O", "Potency": "inconclusive [activator, full curve]"}, {"smiles": "COC(=O)c1ccc(CSc2nc3c(c(=O)n2-c2ccc(F)cc2)SCC3)o1", "Potency": "inconclusive [activator, single point]"}, {"smiles": "COc1ccc(C(=O)NNc2ncnc3c2cnn3-c2ccccc2)cc1", "Potency": "inconclusive [activator, partial curve, poor fit]"}, {"smiles": "CC(C)c1ccc(/C=C/C(=O)N2CCOCC2)cc1", "Potency": "inconclusive [activator, partial curve]"}, {"smiles": "O=C(NC(=S)NC(CO)Cc1ccccc1)c1ccc(F)cc1", "note": "(stereo not given)", "Potency": "inconclusive [activator, partial curve]"}, {"smiles": "COc1ccc(-n2c(-c3ccccc3)cc3c2CCCC3=O)cc1", "Potency": "inconclusive [activator, single point]"}, {"smiles": "COc1cccc(N2CCN(C(=O)C3CCCN(c4ncnc5c4nc4n5CCCCC4)C3)CC2)c1", "note": "(stereo not given)", "Potency": "inconclusive [activator, single point]"}, {"smiles": "CCCCn1nc(NC(=O)COC)c2cc3cc(OC)ccc3nc21", "Potency": "inconclusive [activator, partial curve]"}, {"smiles": "O=C(Nc1nnc(-c2ccccc2F)s1)C1CCCO1", "note": "(stereo not given)", "Potency": "inconclusive [activator, partial curve]"}, {"smiles": "O=C(Cn1ncc2ccsc2c1=O)N1CCN(c2ccccc2)CC1", "Potency": "inactive"}, {"smiles": "O=C1CCc2ccccc2N1Cc1ccccc1", "Potency": "inconclusive [activator, single point]"}, {"smiles": "COc1ccc(Br)c(C(=O)Nc2cccc(S(=O)(=O)N3CCOCC3)c2)c1", "Potency": "inconclusive [activator, full curve, poor fit]"}, {"smiles": "COc1ccc(C2C3=C(CC(C)(C)CC3=O)Nc3cc4c(cc32)OCO4)cc1", "note": "(stereo not given)", "Potency": "inconclusive [activator, full curve]"}, {"smiles": "CC(=O)c1c(N2CCOCC2)nc(=O)n(-c2ccccc2)c1C", "Potency": "inactive"}, {"smiles": "CN(c1ccccc1)c1nc(-n2ccnc2)nc(-n2ccnc2)n1", "Potency": "inconclusive [activator, partial curve]"}, {"smiles": "NNC(=O)c1[nH]c2ccc(Cl)cc2c1-c1ccccc1", "Potency": "inactive"}, {"smiles": "Nc1nnnn1/N=C/c1cc([N+](=O)[O-])ccc1O", "Potency": "inconclusive [activator, partial curve]"}, {"smiles": "Fc1ccc(N2CCN(C(c3cccs3)c3nnnn3CCc3ccccc3)CC2)cc1", "note": "(stereo not given)", "Potency": "inconclusive [activator, single point]"}, {"smiles": "COC(=O)[C@@]12CCCN1[C@H](c1ccc(-c3ccccc3)cc1)[C@@H]1C(=O)N(C)C(=O)[C@@H]12", "Potency": "inconclusive [activator, partial curve]"}, {"smiles": "O=S(=O)(c1cccc2cccnc12)N(CCO)CCO", "Potency": "inconclusive [activator, partial curve]"}, {"smiles": "Cn1c(-c2ccc(S(=O)(=O)N3CCCC3)cc2)csc1=Nc1ccc(Cl)c(Cl)c1", "Potency": "inconclusive [activator, partial curve]"}, {"smiles": "CN1CCN(C(=O)c2ccc(Cn3cc(Cl)cn3)o2)CC1", "Potency": "inactive"}, {"smiles": "O=C(/C=C/c1ccccc1)Nc1cccnc1Cl", "Potency": "active: 7.94 µM"}, {"smiles": "CCn1cc(C2C(C(=O)Nc3cc(C)ccn3)=C(C)NC3=C2C(=O)CC(C)(C)C3)c(C)n1", "note": "(stereo not given)", "Potency": "inconclusive [activator, full curve, poor fit]"}, {"smiles": "COc1cc2c(cc1OC)CN(C(=O)CCCOc1ccc(Cl)cc1Cl)CC2", "Potency": "inconclusive [activator, single point]"}, {"smiles": "Cc1nnc(SCC(=O)NC23CC4CC(CC(C4)C2)C3)n(N)c1=O", "Potency": "inactive"}, {"smiles": "Cc1cc(C)c(S(=O)(=O)N2CCN(C3CC(=O)N(c4ccccc4Cl)C3=O)CC2)c(C)c1", "note": "(stereo not given)", "Potency": "inconclusive [activator, single point]"}, {"smiles": "Cc1nn(C)cc1C(=O)Nc1ccccc1Br", "Potency": "inconclusive [activator, partial curve]"}, {"smiles": "COc1ccc(NC(=O)C2CCN(C(=O)c3cccs3)CC2)c(OC)c1", "Potency": "inconclusive [activator, single point]"}, {"smiles": "COc1ccc(NC(=O)C2Cc3c(-c4ccccc4)ccnc3O2)cc1OC", "note": "(stereo not given)", "Potency": "inconclusive [activator, single point]"}, {"smiles": "O=C(COCc1cc(-c2cccs2)on1)NCc1cccc(Cl)c1", "Potency": "inconclusive [activator, single point]"}, {"smiles": "Cc1cccc(C)c1OCC(=O)NCc1ccccc1", "Potency": "inconclusive [activator, single point]"}]}]}
